Experimental data published in the supplement of paper PMC10441789.
The list shows a part of the results. Antibody binding of pooled human sera (four to six donors per pool; dilution not stated) to peptides of the Trypanosoma cruzi antigen TSSA on microarrays. Quantile-normalised fluorescence in arbitrary units, mean of duplicate arrays; higher = more binding. No active / inactive call. The uninfected pools are read here as the healthy donors of the same country. The strongest signals lie near the top of the scale (about 60,000).

Key:
Assay in all cases: antibody binding signal (normalised fluorescence) (arbitrary fluorescence units); higher = stronger serum antibody binding to peptide
[1] = test system: pooled sera of chronic Chagas disease patients, Argentina
Method: (§1)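 Microarray of 15-residue peptides over residues 30-55 of Trypanosoma cruzi TSSAII, each with 1 to 10 substitutions at naturally variable positions, probed with one serum pool per country.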

[2] = test system: pooled sera of chronic Chagas disease patients, Bolivia
Method: as §1

[3] = test system: pooled sera of chronic Chagas disease patients, Brazil
Method: as §1

[4] = test system: pooled sera of chronic Chagas disease patients, Colombia
Method: as §1

[5] = test system: pooled sera of chronic Chagas disease patients, Mexico
Method: as §1

[6] = test system: pooled sera of chronic Chagas disease patients, USA
Method: as §1

[7] = test system: pooled sera of uninfected people, Argentina
Method: as §1

[8] = test system: pooled sera of uninfected people, Bolivia
Method: as §1

[9] = test system: pooled sera of uninfected people, Brazil
Method: as §1

[10] = test system: pooled sera of uninfected people, Colombia
Method: as §1

[11] = test system: pooled sera of uninfected people, Mexico
Method: as §1

[12] = test system: pooled sera of uninfected people, USA
Method: as §1

Sequence | antibody binding signal [1] | antibody binding signal [2] | antibody binding signal [3] | antibody binding signal [4] | antibody binding signal [5] | antibody binding signal [6] | antibody binding signal [7] | antibody binding signal [8] | antibody binding signal [9] | antibody binding signal [10] | antibody binding signal [11] | antibody binding signal [12]
ISTPPSGTDNKAATG | 38000 | 42400 | 49700 | 1630 | 11300 | 19800 | 1070 | 665 | 1650 | 238 | 295 | 293
DNKAAAGGAPSQPGA | 342 | 930 | 13300 | 3240 | 455 | 297 | 344 | 451 | 302 | 365 | 739 | 282
DKKPATGGTPSPPGA | 648 | 619 | 4130 | 2300 | 545 | 545 | 258 | 426 | 1150 | 269 | 127 | 125
TDKKTATGGAPSPSG | 1320 | 387 | 854 | 4160 | 728 | 927 | 295 | 246 | 147 | 134 | 313 | 159
GTEKKTAAGEAPSQP | 3670 | 8360 | 35000 | 697 | 908 | 8560 | 308 | 865 | 205 | 2360 | 150 | 86
SGTDNKAAAGGAPSP | 292 | 319 | 45200 | 4000 | 434 | 689 | 182 | 744 | 1620 | 314 | 184 | 356
DNKTAAGGAPSPPGA | 401 | 466 | 458 | 5160 | 584 | 765 | 257 | 396 | 564 | 298 | 573 | 205
ISTPPSGTENKAAAG | 54300 | 47800 | 54900 | 478 | 7870 | 27200 | 3420 | 699 | 400 | 835 | 290 | 842
PPSGKENKTATGGAP | 5660 | 854 | 4690 | 1420 | 2750 | 3070 | 3220 | 1390 | 145 | 644 | 246 | 471
TEKKPAAGEAPSQPG | 9780 | 21800 | 41600 | 380 | 351 | 15200 | 98.6 | 152 | 297 | 95.2 | 168 | 636
TDNKPATGGAPSPPG | 1930 | 16800 | 5600 | 375 | 403 | 2350 | 238 | 956 | 367 | 188 | 264 | 152
GTDKKPATGEAPSPP | 44300 | 41400 | 46800 | 6060 | 507 | 38500 | 947 | 586 | 214 | 277 | 535 | 153
ENKPAAGEAPSPPGA | 1270 | 1610 | 33600 | 318 | 237 | 16500 | 163 | 209 | 169 | 113 | 92.4 | 171
SGKDNKPAAGEAPSP | 1330 | 860 | 26400 | 937 | 706 | 13800 | 404 | 635 | 142 | 366 | 351 | 92.8
SGKDKKPAAGEAPSP | 995 | 635 | 6010 | 988 | 908 | 10000 | 123 | 110 | 127 | 891 | 92.6 | 95.3
TPPSGTDNKTATGEA | 22100 | 26800 | 40200 | 380 | 4420 | 8700 | 414 | 405 | 405 | 175 | 117 | 124
KDNKTATGGAPSPPG | 462 | 245 | 284 | 1830 | 192 | 657 | 374 | 156 | 119 | 173 | 98.4 | 152
KEKKTATGGTPSPSG | 314 | 252 | 223 | 1060 | 211 | 1130 | 151 | 73.7 | 128 | 122 | 121 | 94.5
STPPSGKEKKPATGG | 21200 | 780 | 3440 | 1100 | 28800 | 729 | 580 | 430 | 124 | 365 | 109 | 430
GKDKKPATGGTPSPS | 486 | 266 | 192 | 948 | 681 | 742 | 148 | 105 | 221 | 185 | 81.7 | 88.9
